Laboratory results: PubChem BioAssay AID485294 (National Center for Advancing Translational Sciences (NCATS), 2010)
The campaign covered roughly 370,000 compounds. About 150 (0.041%) were called active. Inconclusive results, whose numbers are uncertain, are shown with a selection of clear calls. Calls follow the shape of the dose curve; as a rule, active = well fitted inhibition curve with a large enough effect; inconclusive = small, poorly fitted or top-dose-only effect; inactive = flat fitted curve, though single readings scatter. No potency is given beside an inconclusive call; the fits are too rough.

Molecular target: Beta-lactamase (Escherichia coli (strain K12)) (UniProt P00811)
Test: qHTS Inhibitors of AmpC Beta-Lactamase (assay with detergent); also: nearly all actives have a fitted effect of over 25% in size;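 as to activity change, negative = inhibition: 0% = no-compound wells and -100% = no-enzyme wells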
Conditions: AmpC hydrolysis of nitrocefin, absorbance 480 nm, 0.01% Triton; activity change, negative = inhibition: at 114 µM (top of the series)
Outline: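 AmpC (5.3 nM in the dispensed reagent) in 20 mM phosphate pH 7.0 with 0.01% (detergent screen) or 0.0001% Triton X-100 was preincubated with compounds for 15 min at room temperature. Nitrocefin was then added from an 800 uM solution, and hydrolysis was followed at 480 nm.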
Potency is read from the fitted curve at half-maximal effect; tags tell the direction and shape of the fitted curve.

Sequence of UniProt P00811 (P00811 whole entry, looked up): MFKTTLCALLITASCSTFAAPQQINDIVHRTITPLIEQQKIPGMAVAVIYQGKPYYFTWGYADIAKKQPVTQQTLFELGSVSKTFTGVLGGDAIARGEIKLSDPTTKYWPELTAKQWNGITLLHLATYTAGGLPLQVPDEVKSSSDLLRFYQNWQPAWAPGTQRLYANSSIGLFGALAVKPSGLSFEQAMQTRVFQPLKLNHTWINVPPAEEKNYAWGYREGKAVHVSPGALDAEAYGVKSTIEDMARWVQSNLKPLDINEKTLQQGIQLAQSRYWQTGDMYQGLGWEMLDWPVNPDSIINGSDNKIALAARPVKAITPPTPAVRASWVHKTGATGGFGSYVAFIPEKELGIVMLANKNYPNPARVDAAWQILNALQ

SMILES | Potency | activity change, negative = inhibition
O=C(Nc1ccc(S(=O)(=O)Nc2ncccn2)cc1)c1ccccc1 | inconclusive [inhibitor, partial curve] | –
COc1ccc(-c2nnc(SCC(=O)Nc3cc(C)on3)o2)cc1 | inconclusive [inhibitor, partial curve, poor fit] | –
N#CNC(=Nc1ccccc1)SCc1ccc(C(=O)O)cc1 | – | inactive: 5.77%
CSc1ccccc1NC(=O)c1onc(C)c1Cl | inconclusive [inhibitor, partial curve, poor fit] | –
Cc1cccc(NC(=O)c2cc(S(=O)(=O)NCc3ccco3)ccc2F)c1C | inconclusive [inhibitor, partial curve, poor fit] | –
CC(OC(=O)c1ccccc1C(=O)N(C)c1ccccc1)C(=O)Nc1ccccc1[N+](=O)[O-] (stereo not drawn) | inconclusive [inhibitor, full curve] | –
C[C@H](C(=O)CC(=O)OC(C)(C)C)[C@H](O)c1ccc(C(F)(F)F)cc1 | inconclusive [inhibitor, full curve, poor fit] | –
COc1ccc(NC(C)=O)cc1CNC(=O)COc1c(C)c(C)cc(C)c1C | inconclusive [inhibitor, partial curve] | –
CCCc1ncc(C(=O)c2ccc(OC)cc2)n1C | inconclusive [inhibitor, full curve, poor fit] | –
c1ccc(CCCCNCC2COc3ccccc3O2)cc1 (stereo not drawn) | – | inactive: -3.13%
Cc1ccc(C(=O)OCC(=O)c2ccc(S(=O)(=O)N3CCCCC3)cc2)o1 | inconclusive [inhibitor, single point] | –
CCOc1cc(C2C(C#N)=C(N)Oc3cc(N)ccc32)ccc1O (stereo not drawn) | inconclusive [inhibitor, full curve, poor fit] | –
CC(=O)Nc1ccc(S(=O)(=O)N(C)CC(=O)OCC(=O)Nc2ccc3c(c2)OCO3)cc1 | inconclusive [inhibitor, full curve, poor fit] | –
CCOC(=O)C1=C(CS(=O)(=O)c2ccccc2)NC(=O)NC1c1ccccc1 (stereo not drawn) | inconclusive [inhibitor, full curve, poor fit] | –
CCc1cccc(NC(=O)C2Cc3ccccc3N2C(=O)c2ccccc2)c1 (stereo not drawn) | inconclusive [inhibitor, full curve, poor fit] | –
O=C(c1ccncc1)N1N=C2CCCCCC2C1(O)C(F)(F)F (stereo not drawn) | – | inactive: 1.44%
O=C(Cn1nnc2ccccc2c1=O)NCCc1ccccc1 | – | inactive: -5.79%
CC1CC(C)CN(C(=O)C(Cc2ccccc2)NC(=O)c2ccccc2)C1 (stereo not drawn) | inconclusive [inhibitor, full curve] | –
Cc1c(CC(=O)NC(C)C)c(=O)oc2cc3c(cc12)CCC(C)(C)O3 | – | inactive: -3.51%
Cc1nnc(NC(=O)c2ccc(-c3ccc(Cl)cc3)o2)s1 | inconclusive [inhibitor, partial curve] | –
CCOc1ccc(S(=O)(=O)c2cn(Cc3ccccc3C)c3ccc(OC)cc3c2=O)cc1 | – | inactive: 6.72%
CNC(=O)c1cc(C(=O)c2ccc(C(F)(F)F)cc2F)c[nH]1 | inconclusive [inhibitor, full curve, poor fit] | –
Cc1cccc2cc(C(c3nnnn3Cc3ccccc3)N3CCN(C)CC3)c(=O)[nH]c12 (stereo not drawn) | inconclusive [inhibitor, full curve, poor fit] | –

SMILES | Potency | activity change, negative = inhibition
CN1CCN(S(=O)(=O)c2cccc(C(=O)NC3CCCC3)c2)CC1 | inconclusive [inhibitor, partial curve, poor fit] | –
Cc1nc2ccc(NC(=O)N3CCN(c4ccccn4)CC3)cc2s1 | inconclusive [inhibitor, full curve, poor fit] | –
Cn1c(C(C#N)C(=O)c2sc3ccccc3c2Cl)nc2ccccc21 (stereo not drawn) | inconclusive [inhibitor, full curve, poor fit] | –
O=C(COC(=O)/C=C/c1ccco1)NCCc1ccccc1 | inconclusive [inhibitor, single point] | –
O=C(c1ccc(F)cc1)N1CCC(c2nc(-c3ccc(S(=O)(=O)N4CCCC4)cc3)no2)CC1 | – | inactive: 16.7%
CC(NC(=O)c1ccc2c(c1)OCO2)C1CCCO1 (stereo not drawn) | inconclusive [inhibitor, full curve, poor fit] | –
CCN(CC)c1ncnnc1-c1ccccc1 | inconclusive [inhibitor, partial curve] | –
CC(=O)Nc1cccc(NC(=O)c2ccc3[nH]c(C)c(C)c3c2)c1 | inconclusive [inhibitor, partial curve, poor fit] | –
Cc1csc2c(N(C)CCO)ncnc12 | – | inactive: 8.49%
COc1ccc(CCn2c(O)cc3nn(-c4nc5ccccc5s4)c(=O)c-3c2C)cc1 | – | inactive: 2.16%
O=C1Nc2ccccc2/C1=C/C(=O)c1cccs1 | – | inactive: -2.8%
O=C(Nc1nc2n(n1)C(c1ccc(Cl)cc1)C=C(c1ccccc1)N2)c1ccco1 (stereo not drawn) | – | inactive: -6.84%
Cc1nn(C)c2c1c(C(F)(F)F)cc(=O)n2C(C)C(=O)NCCc1ccccc1 (stereo not drawn) | – | inactive: 1.7%
CN1CCN(/N=C/c2nc(-c3ccc(Cl)cc3)n3ccccc23)CC1 | – | inactive: 8.96%
O=C(Cn1c(CC(=O)N2CCCC2)nc2ccccc21)NCc1ccccc1 | inconclusive [inhibitor, full curve] | –
O=C(/C=C/c1ccc(N2CCC(c3ccccc3)=N2)cc1)c1ccccc1 | – | inactive: 6.7%
Cc1ccc2c(c1)N(CC(=O)NCCc1c[nH]c3ccccc13)C(=O)CO2 | inconclusive [inhibitor, full curve] | –
CCOC(=O)c1ccc(N2CCOCC2)c(NC(=O)c2c(-c3ccccc3)noc2C)c1 | – | inactive: 8.26%
COc1cc(/C=C/c2nc(-c3ccccc3O)n[nH]2)cc(OC)c1OC | – | inactive: -7.17%
CS(=O)(=O)N(CC(=O)NCCSCc1cccc(Cl)c1)c1ccccc1F | inconclusive [inhibitor, full curve, poor fit] | –
COc1ccc(N(CC(=O)Nc2cccc(C(C)=O)c2)S(=O)(=O)c2ccccc2)c(OC)c1 | – | inactive: -1.96%
O=C(NCCc1nc(-c2ccc(F)cc2)no1)c1ccc(F)cc1 | inconclusive [inhibitor, full curve, poor fit] | –
COc1c(/C=N/NC(=O)c2ccccc2O)c(CCN(C)C(C)=O)cc2c1OCO2 | – | inactive: -2.2%

SMILES | Potency | activity change, negative = inhibition
CC(C)(C)C(=O)Cn1c[n+](N)cn1 | inconclusive [inhibitor, full curve] | –
CCc1nc2ccccc2c(C(=O)Oc2cccc3cccnc23)c1C | – | inactive: -9.28%
Cc1ccccc1NC(=S)NC(NC(=O)c1ccco1)C(Cl)(Cl)Cl (stereo not drawn) | inconclusive [inhibitor, full curve, poor fit] | –
Cn1c(SCC(=O)N/N=C/c2ccncc2)nc2ccccc21 | inconclusive [inhibitor, full curve, poor fit] | –
CCc1ccc(NC(=O)C2CCC(CNS(=O)(=O)c3ccc4c(c3)C(C)(C)C(=O)N4C)CC2)cc1 (stereo not drawn) | – | inactive: 7.01%
O=C(NC(=S)Nc1ccc2c(c1)OCCO2)c1cccc2ccccc12 | inconclusive [inhibitor, partial curve, poor fit] | –
CC(=O)Nc1ccc(NC(=O)C(C)Sc2nc3ccccc3c(=O)n2CC2CCCO2)cc1 (stereo not drawn) | inconclusive [inhibitor, full curve, poor fit] | –
CCOC(=O)c1cnc(SCC(=O)Nc2ccc(N3CCOCC3)cc2)nc1N | inconclusive [inhibitor, full curve, poor fit] | –
CC(C)C(=O)Nc1ccc2oc(-c3cc(F)c(F)cc3Cl)nc2c1 | inconclusive [inhibitor, full curve, poor fit] | –
CCOCc1c(C(=O)N2CCN(CC(=O)Nc3ccc(F)cc3)CC2)oc2ccccc12 | inconclusive [inhibitor, partial curve, poor fit] | –
COc1ccc(NC(=O)CSc2nc3[nH]ncc3c(=O)[nH]2)cc1OC | inconclusive [inhibitor, full curve, poor fit] | –
Cc1cc2c(Nc3cccc(O)c3)ncnc2s1 | – | inactive: -6.05%
COc1cccc(CNC(=S)Nc2cccc(Cl)c2C)c1 | inconclusive [inhibitor, full curve] | –
CCc1nc(N2CCN(C(C)=O)CC2)c2c3c(sc2n1)CC(C(C)(C)C)CC3 (stereo not drawn) | inconclusive [inhibitor, partial curve, poor fit] | –
COc1ccccc1CN1CC(C(=O)NCCc2ncccc2C)CCC1=O (stereo not drawn) | inconclusive [inhibitor, full curve] | –
COc1ccc(NC(=O)OCC(C)C)cc1OC | inconclusive [inhibitor, full curve, poor fit] | –
NS(=O)(=O)c1cc(C(=O)Nc2ccc3c(c2)CCC3)ccc1Cl | inconclusive [inhibitor, full curve, poor fit] | –
Cc1cccc(N2CCN(C(=O)c3c(C)oc4ncnc(N5CCOCC5)c34)CC2)c1C | – | inactive: 12%
NN1C(=O)c2cccc3c(C(=O)O)ccc(c23)C1=O | inconclusive [inhibitor, full curve, poor fit] | –
COc1ccc(C)cc1NC(=O)c1cc(S(=O)(=O)N2CCC(C)CC2)cn1C | – | inactive: 13.5%
Cn1nnnc1SCc1ccc(C(=O)Nc2ccc(Br)cc2)cc1 | inconclusive [inhibitor, partial curve, poor fit] | –
COc1ccc(OC)c(NC(=O)CSc2nnc(-c3ccco3)o2)c1 | inconclusive [inhibitor, full curve] | –
